Hit rate of the full screen: of about 52,000 compounds, about 1,700 (3.3%) were called active. Cut-off read from the data, not from the text of the source: active = survival mostly below about 52% (no sharp cut-off); inactive = mostly above about 56%. The list shows a part of the results.

The assay concerns Wild type. Description: growth inhibition of S. aureus wild type versus tarO mutant, primary screen, teichoic acid synthesis inhibitors, RN4220, OD600 (AID 463173). The conditions noted are these: S. aureus RN4220 wild type/DeltatarO growth, OD600, 18 h, hits give low values, screened at 18.75 µg/mL (by protocol).
As to `CCc1ccccc1NC(=O)Cn1nnc(C(=O)NCc2cccc(OC)c2)c1N`, the survival was inactive: 79%. Then `COc1ccc(CC(=O)Nc2nnc3n2CCS3)cc1OC`, with inactive: 91%. Consider `COc1ccc(C)cc1-n1c(SCC(=O)NCc2ccco2)nc2c([nH]c3ccccc32)c1=O`, for which the survival is inactive: 77%. Then `Cc1ccc(NC(=O)Cn2c(=O)n(CC(=O)NCCc3ccccc3)c(=O)c3ccccc32)cc1`, with inactive: 82%; and `CC1CCc2nc3ncn(Cc4cccc(F)c4)c(=O)c3cc2C1` (configuration not stated), with inactive: 66%; and `O=C(Nc1ncc(Cc2ccccc2Cl)s1)c1ccc2c(c1)CC(c1ccccc1)OC2=O` (configuration not stated), with inactive: 79%. For the molecule `CNC(=O)C1CCC(Cn2c(=O)c3sccc3n(CC(=O)Nc3ccccc3)c2=O)CC1` (configuration not stated), the survival was inactive: 63%. Then `CCCCN(CC)CCCNC(=O)c1nn(-c2ccc(OC)cc2)c(=O)c2c1c1ccccc1n2C`, with inactive: 74%. Turning to `Cc1ccc(CCNC(=O)CCCn2c(=O)c3cccn3c3ccc(F)cc32)cc1`, the survival is inactive: 41%. As for `CCCCN(CC)CCCNC(=O)c1sc2nc3n(c(=O)c2c1C)CCCCC3`, the figure is inactive: 87%; as for `COCCNC(=O)c1cc(-c2cccc(Cl)c2)on1`, inactive: 136%.

With `O=C(CN1C(=O)COc2ccc(Cl)cc21)Nc1cccc(C(=O)O)c1`, the survival was inactive: 67%. Then `CCOC(=O)c1ccc(N2C(=O)c3n[nH]c(C)c3C2c2ccc(CC)cc2)cc1` (configuration not stated), with inactive: 82%; and `Cc1cc(=O)n(Cc2ccccc2)c(=O)n1Cc1ccccc1`, with inactive: 94%. As for `CCc1ccccc1NC(=O)Cn1nc(C)c2nn(-c3ccc(Cl)cc3)c(C)c2c1=O`, the figure is inactive: 124%; as for `COc1cc2[nH]c(=O)n(CCCC(=O)N(C)Cc3ccccc3)c(=O)c2cc1OC`, inactive: 68%. As for `Cc1ccc(-n2nc(C(=O)N(C)c3ccccc3Cl)c3c4ccccc4n(C)c3c2=O)cc1`, the figure is inactive: 84%; as for `CC1CCCCC1NC(=O)CN1CCC(NC(=O)Nc2ccccc2)CC1` (configuration not stated), inactive: 100%; as for `Cc1ccc(NC(=O)Cn2cc(S(=O)(=O)Cc3ccccc3)c3ccccc32)cc1C`, inactive: 128%. Turning to `COC(=O)c1cc2occc2n1Cc1nc(-c2ccc(Cl)cc2)oc1C`, the survival was inactive: 91%.

Take `CCc1ccc(S(=O)(=O)c2cn(C)c3ccc(C)cc3c2=O)cc1`: the survival was inactive: 98%. As for `O=C(CSc1ncc(-c2ccccc2)[nH]1)Nc1cccc(O)c1`, the survival is inactive: 140%. Take `CC(NC(=O)CN1C2CCC1CC(=O)NC2)c1ccccc1` (configuration not stated): the survival was inactive: 114%. For the molecule `CCOCCCNC(=O)CN1C(=O)CCn2nc(-c3cccn3C)cc21`, the survival is inactive: 59%. As to `CSc1ccc(CCNC(=O)C2CCCN(S(=O)(=O)N(C)c3ccc(F)cc3)C2)cc1` (configuration not stated), the survival was inactive: 84%. For `CCOC(=O)C(Cc1ccccc1)NC(=O)Cn1nnc(-c2ccc(C)cc2)n1` (configuration not stated), the survival was inactive: 70%. As to `CN(C)S(=O)(=O)N(CC(=O)NCCSCc1ccc(Cl)cc1Cl)c1ccccc1`, the survival was inactive: 56%. As to `COc1ccc(NC(=O)CN2C(=O)C(c3ccccc3)=NC23CCC(C)CC3)cc1Cl` (configuration not stated), the survival was inactive: 87%. For the molecule `COc1ccc2[nH]c(=O)cc(C(=O)O)c2c1`, the survival is inactive: 94%. Then `CCOC(=O)C(CC)n1c(Br)nc2c1c(=O)[nH]c(=O)n2C` (configuration not stated), with inactive: 120%; and `O=C1Cc2cc(S(=O)(=O)Nc3cccc(C(F)(F)F)c3)cc3c2N1CCC3`, with inactive: 75%; and `CC(C)c1ccc(NC(=O)c2cc(S(=O)(=O)NCCc3ccccc3)ccc2F)cc1`, with inactive: 45%. As for `COc1ccc(-n2ccnc(NCCc3ccc(S(N)(=O)=O)cc3)c2=O)cc1Cl`, the figure is inactive: 69%; as for `Cc1cccn2c(=O)cc(COc3cccc(NC(=O)Nc4cccc(Cl)c4)c3)nc12`, inactive: 134%; as for `C[C@H](NC(=O)OC(C)(C)C)c1nnc(SCc2ccc(Cl)cc2Cl)o1`, inactive: 51%. On to `COc1ccc(C(C)C)cc1S(=O)(=O)NCCc1c(C)[nH]c2c(Cl)cccc12`, for which the survival is inactive: 80%. As for `Cc1nn(CC(=O)N2CCN(c3ccccc3F)CC2)c(=O)c2cccn12`, the figure is inactive: 109%. Regarding `CCN(CC)c1ccc2nc3c(=O)n(C)c(=O)n(C)c3nc2c1`, the survival was inactive: 79%. As for `COc1ccc(-c2nc3cc(N=Cc4ccccc4O)ccc3o2)cc1`, the figure is inactive: 111%; as for `CC(C)c1ccc(NC(=O)[C@H]2O[C@@H]3OC(C)(C)O[C@@H]3[C@H]3OC(C)(C)O[C@H]32)cc1`, inactive: 100%; as for `Cc1cc(OC(C)C(=O)N(Cc2ccco2)Cc2ccco2)cc(C)c1Cl` (configuration not stated), inactive: 67%. As for `CCc1cc2c(=O)c(-c3nc(C)cs3)c(CCC(=O)O)oc2cc1O`, the figure is inactive: 102%; as for `O=C(CSc1oc(-c2ccc(F)cc2)nc1S(=O)(=O)c1ccccc1)c1ccc(Cl)cc1`, inactive: 67%; as for `CC(C)c1nn2c(=O)cc(COC(=O)c3cccc(NC(=O)CCc4ccccc4)c3)nc2s1`, inactive: 74%. As for `CCN(Cc1ccccc1)C(=O)Cn1c(=O)cc(C)c2c(C)nn(-c3cccc(F)c3)c21`, the figure is inactive: 71%; as for `CCn1nc(C)c(CCN(C)C(=O)Nc2cc(Cl)c(OC)cc2OC)c1C`, inactive: 100%; as for `O=C(C(c1ccccc1)c1ccccc1)N1CCN(c2ccccn2)CC1`, inactive: 98%. For `CC(C)c1ccc(NC(=O)C2CCC(CNS(=O)(=O)c3ccc4c(c3)CCCC(=O)N4)CC2)cc1` (configuration not stated), the survival was inactive: 75%.

As to `COc1ccc(CNC(=O)CCn2c(=O)c3cccn3c3ccc(F)cc32)cc1OC`, the survival was inactive: 105%.

Turning to `CCN1C(=O)c2ccccc2S(=O)(=O)c2ccc(C(=O)NCc3ccc(C)cc3)cc21`, the survival was inactive: 86%.

On to `CCc1ccc2occ(CC(=O)Nc3nnc(SC)s3)c2c1`, for which the survival is inactive: 85%.

`CCOc1ccc(-c2nnc(SCC(=O)NC3CCCCC3)nc2-c2ccc(OCC)c(OC)c2)cc1OC`: the survival was inactive: 77%. Then `Cn1c(=O)c2c(-c3ccccc3)n(-c3cccc(C#N)c3)cc2n(C)c1=O`, with inactive: 86%. In the case of `CCOC(=O)c1[nH]c(C)c(CCC(=O)N2CCN(c3ccc(Cl)cc3)CC2)c1C`, the survival is inactive: 71%. As for `CCS(=O)(=O)c1nc(S(=O)(=O)c2ccc(Cl)cc2)c(NCc2ccc(Cl)cc2)s1`, the figure is inactive: 80%.

For `COc1ccc(-c2ccc(=O)n(CC(=O)Nc3ccc(Br)cc3F)n2)cc1`, the survival is inactive: 56%. With `COc1ccc(Cc2c(C)nn(-c3nc(C)c(C(=O)Nc4cccc(C(C)=O)c4)s3)c2C)cc1`, the survival was inactive: 88%.

For `CCc1ccc2nc(N(Cc3cccnc3)C(=O)Cc3ccccc3)sc2c1`, the survival is inactive: 71%. As to `CC1(C)NC(=O)N(CC(O)CN2C(=O)NC(C)(C)C2=O)C1=O`, the survival was inactive: 117%. As for `CCC(C(=O)NCc1ccccc1Cl)n1c(=O)c2cccn2c2ccccc21` (configuration not stated), the figure is inactive: 76%.

On to `Cn1c(CNc2cccc(C(F)(F)F)c2)n[nH]c1=S`, for which the survival is inactive: 111%. As for `CCc1ccccc1N1C(=O)N(Cc2cc(=O)n3ccccc3n2)c2ccccc2S1(=O)=O`, the figure is inactive: 82%; as for `O=C(NCc1ccccc1)c1c2c(nc3ccccc13)C(=O)N(C1CCCCC1)C2`, inactive: 88%. Then `COC(=O)c1cc(OC)c(OC)cc1NC(=O)c1ccc2c(c1)CCN2S(C)(=O)=O`, with inactive: 82%; and `Cc1ccc2c(c1)N(C(=O)c1ccc(F)cc1)C(C)(C)CC2(C)c1ccccc1` (configuration not stated), with inactive: 43%; and `CCOC(=O)N1CCc2c(sc3c2c(=O)n(CCc2ccccc2)c(=O)n3CC(=O)Nc2ccccc2C)C1`, with inactive: 85%. Then `CCCSc1nnc(NC(=O)c2cc(=O)c3ccccc3o2)s1`, with inactive: 74%; and `COCCNC(=O)Cn1cc(/C=C2\C(=O)NC(=O)N(C3CCCCC3)C2=O)c2ccccc21`, with inactive: 104%; and `COc1ccc(S(=O)(=O)N(CCc2ccccc2)CC(=O)Nc2cc(Cl)ccc2C)cc1`, with inactive: 72%. For `COC(=O)c1cc2sccc2n1Cc1c(C)cc(C)cc1C`, the survival was inactive: 42%.

With `COc1ccc(NC(=O)C2CCCN(S(=O)(=O)c3ccc4[nH]c(=O)ccc4c3)C2)cc1Cl` (configuration not stated), the survival is inactive: 100%. As for `NC(=O)c1c(NC(=O)CS(=O)(=O)c2ccc(Cl)cc2)sc2c1CCCC2`, the figure is inactive: 133%. Then `O=C(c1cccc(Cl)c1)N(Cc1cccc(F)c1)C1CCS(=O)(=O)C1` (configuration not stated), with inactive: 87%; and `CCCN1CCN(CCCNC(=O)c2cc3c(s2)-c2c(C)cccc2OC3)CC1`, with inactive: 103%. `CCOc1cccc(C(=O)N(Cc2ccc(C(C)C)cc2)C2CCS(=O)(=O)C2)c1` (configuration not stated): the survival is inactive: 73%. As for `COc1ccccc1C(=O)Nc1ccccc1OCc1cc(=O)n2cc(C)sc2n1`, the figure is inactive: 85%; as for `Cc1ccc(-c2nn(CCC(=O)Nc3ccc(OC(F)(F)F)cc3)c(=O)c3ccccc23)cc1`, inactive: 108%; as for `Cc1ccc(NC(=O)C2CCN(C(=O)c3sc4nc[nH]c(=O)c4c3C)CC2)cc1F`, inactive: 80%. As for `Cc1ccc(/C=C(\C#N)C(=O)NC2CCCCCC2)o1`, the figure is inactive: 109%; as for `CC(C)Oc1ccc(C(=O)NCCc2csc(-c3cccc(F)c3)n2)cc1`, inactive: 72%; as for `Cc1ccccc1NC(=O)c1c(C)oc2ccc(O)c(CN(C)Cc3ccccc3)c12`, inactive: 101%.

For `Cc1ccc(-c2noc(-c3ccccc3OCC(=O)Nc3ccccc3[N+](=O)[O-])n2)cc1`, the survival was inactive: 85%. Then `CCN1C(=O)C(Cc2nc3ccccc3c(=O)n2-c2cccc(C)c2)c2ccccc21` (configuration not stated), with inactive: 53%; and `CCCC(=O)N1c2nc(-c3ccco3)nn2C2(CCCCC2)[C@@H]2CCCC[C@@H]21`, with inactive: 89%; and `COc1cccc(NC(=O)Cn2c(=O)n(-c3ccc(C)cc3)c(=O)c3ccccc32)c1`, with inactive: 75%. Then `O=C(Nc1ncc(Cc2ccc(F)cc2)s1)c1ccc2c(c1)CC(c1ccccc1)OC2=O` (configuration not stated), with inactive: 90%; and `CCCCCn1c(CCCNC(=O)c2ccccc2)nc2ccccc21`, with inactive: 65%.

The record behind these values is PubChem BioAssay AID463173 (ICCB-Longwood Screening Facility, Harvard Medical School, 2010).
